According to publication PMC4336329 (PLoS ONE, 2015):
The whole screen tested about 310,000 compounds, of which about 2,200 (0.71%) showed an effect of 50% or more. The effect is printed as a negative number. The list shows a part of the results.

What follows are compounds tested against human ether-à-go-go-related gene (hERG) potassium channel (human, UniProt Q12809) (assay: primary screen, population patch clamp on CHO cells stably expressing hERG).
human ether-à-go-go-related gene (hERG) potassium channel, sequence (Q12809 whole entry, looked up): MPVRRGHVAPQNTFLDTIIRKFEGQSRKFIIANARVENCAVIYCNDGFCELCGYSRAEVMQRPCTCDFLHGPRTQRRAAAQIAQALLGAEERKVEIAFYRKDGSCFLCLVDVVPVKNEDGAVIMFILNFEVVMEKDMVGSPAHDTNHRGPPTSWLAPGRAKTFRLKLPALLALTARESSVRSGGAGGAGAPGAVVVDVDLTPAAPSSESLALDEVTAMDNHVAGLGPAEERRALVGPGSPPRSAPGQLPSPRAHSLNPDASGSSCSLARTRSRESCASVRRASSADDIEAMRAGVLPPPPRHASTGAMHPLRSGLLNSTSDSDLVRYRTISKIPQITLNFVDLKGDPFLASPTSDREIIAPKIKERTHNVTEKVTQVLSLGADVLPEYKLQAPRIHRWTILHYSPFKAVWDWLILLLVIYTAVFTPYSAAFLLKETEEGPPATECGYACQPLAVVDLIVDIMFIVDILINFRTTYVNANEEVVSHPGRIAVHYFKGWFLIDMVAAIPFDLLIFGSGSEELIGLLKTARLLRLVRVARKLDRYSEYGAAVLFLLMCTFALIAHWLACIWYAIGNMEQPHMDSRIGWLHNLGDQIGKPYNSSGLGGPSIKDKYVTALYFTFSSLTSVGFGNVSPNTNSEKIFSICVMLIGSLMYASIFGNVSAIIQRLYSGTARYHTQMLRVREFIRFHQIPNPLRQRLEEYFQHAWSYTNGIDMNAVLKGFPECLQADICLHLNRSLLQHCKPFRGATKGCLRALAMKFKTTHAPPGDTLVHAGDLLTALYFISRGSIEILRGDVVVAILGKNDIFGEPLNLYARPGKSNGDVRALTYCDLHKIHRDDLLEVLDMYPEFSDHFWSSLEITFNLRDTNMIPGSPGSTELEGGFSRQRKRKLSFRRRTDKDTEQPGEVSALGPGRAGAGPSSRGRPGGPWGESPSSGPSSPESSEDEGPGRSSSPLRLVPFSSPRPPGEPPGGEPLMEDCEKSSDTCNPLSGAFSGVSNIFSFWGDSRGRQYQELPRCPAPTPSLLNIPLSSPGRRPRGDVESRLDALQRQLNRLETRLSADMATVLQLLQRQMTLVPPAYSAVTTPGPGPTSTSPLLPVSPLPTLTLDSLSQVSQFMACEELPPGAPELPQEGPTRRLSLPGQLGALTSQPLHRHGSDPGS

Row | Structure (SMILES) | hERG current change (%, negative = inhibition) at 1uM [%]
1 | Cc1cc(NC(=O)CSc2nccn2-c2ccc(Cl)cc2)no1 | 1.63
2 | COc1ccc(-n2c(=O)c3ccccc3n(CC(=O)Nc3cccc(OC)c3)c2=O)cc1 | 16.3
3 | FC(F)(F)c1nnc2ccc(-n3ccnc3)nn12 | 13.3
4 | CC(CNC(=O)CCCn1ncn2c(cc3occc32)c1=O)c1ccccc1 (stereo not shown) | 0.18
5 | COCCSc1nnc(NC(=O)CCS(=O)(=O)c2ccccc2)s1 | 18.4
6 | COc1ccccc1N(CC(O)COc1c(C)cc(C)cc1C)S(=O)(=O)c1ccccc1 (stereo not shown) | 5.45
7 | COc1cc(OC)cc(C(=O)Nc2nnc(Cc3ccc(OC)c(OC)c3)s2)c1 | 20.2
8 | CCc1nc(SCC(=O)Nc2ccc(F)cc2)c2c(=O)n(C)c(=O)n(C)c2n1 | 0.403
9 | Cc1ccc(S(=O)(=O)Nc2c(C)nc3nc[nH]n3c2=O)c(C)c1 | 21.5
10 | Cc1ccc(S(=O)(=O)Nc2cc(C(F)(F)F)ccc2N2CCOCC2)cc1C | 2.71
11 | COC(=O)c1ccc(Oc2ccc3nnc(C)n3n2)cc1 | 7.92
12 | COc1cc(/C=C2\C(=O)N(CCC#N)N=C2C)c(Br)cc1OC(C)C | 6.96
13 | CC(C)C(CCN1C(=O)CCC1=O)C1CCOC(C)(C)C1 (stereo not shown) | 13.5
14 | Nc1nc(Cn2nnc(-c3ccccc3Cl)n2)nc(N2CCOCC2)n1 | -25.9
15 | CCOc1cc(C(=O)OCC(=O)Nc2c(C)cccc2C)ccc1OCC(=O)N1CCOCC1 | 8.79
16 | CCN1CCN(CCc2nc3cc(NC(=O)COc4ccc(Cl)cc4)ccc3n2C)CC1 | -26.8
17 | CCOC(=O)C1(CC2CCCCO2)CCN(Cc2nc3ccccc3nc2C)CC1 (stereo not shown) | 5.83
18 | NS(=O)(=O)c1ccc(N2CCCCCC2)c([N+](=O)[O-])c1 | 11.6
19 | C=CCn1c(-c2cc(Cl)ccc2OC)n[nH]c1=S | 14.7
20 | C/C(=N\N=C1/SC(CC(=O)O)C(=O)N1c1ccccc1)c1ccc(C)cc1 (stereo not shown) | 16.9
21 | COc1cc2c(cc1OC)C(c1cccc(F)c1)CC(=O)N2 (stereo not shown) | 6.8
22 | CN(C)CCCN(C(=O)c1ccco1)c1nc2ccc(Cl)cc2s1.Cl | -14.7

Row | Structure (SMILES) | hERG current change (%, negative = inhibition) at 1uM [%]
23 | CC(C)(C)C(=O)OCc1nc(-c2ccc3c(c2)OCCO3)cs1 | 4.02
24 | O=C(O)c1cccc(-n2nc(-c3ccc(Cl)c([N+](=O)[O-])c3)c3ccccc3c2=O)c1 | 12.7
25 | CSc1ccc(S(=O)(=O)N2CCC(C(=O)NCCCn3ccnc3)CC2)cc1 | 12.8
26 | CC1=C(Sc2ccccn2)C(=O)NC(C)(C)C1 | 12
27 | COc1cc(C(=O)NCC2(N(C)C)CCCCC2)ccc1OCc1ccccc1 | -22.7
28 | COC(=O)CSc1nc2cc3c(cc2cc1C)OCO3 | 14.7
29 | CCOC(=O)c1ccc(CC(=O)c2oc3cc(O)ccc3c2C)o1 | 8.61
30 | O=[N+]([O-])c1ccccc1OCCCNCc1ccccc1 | 4.87
31 | c1ccc(Nc2cccc(Nc3ccccc3)c2)cc1 | 9.66
32 | CC(C)(C)c1ccc(OCc2ccc(C(=O)N/N=C/c3ccc(O)c(O)c3)cc2)cc1 | 6.22
33 | COc1cccc(N2CCN(C(=O)c3ccc(CSc4nc5ccncc5[nH]4)cc3)CC2)c1 | 4.18
34 | COc1ccc(C2=NN(C(=O)CSc3cn(C)c4ccccc34)C(c3ccc(OC)cc3)C2)cc1 (stereo not shown) | 12
35 | Cc1cccc(N2CCN(Cc3ccoc3)CC2)c1C | 3.84
36 | O=C1CC(C2CCCO2)C(=O)N1c1cccc(Cl)c1 (stereo not shown) | 8.41
37 | COc1ccc(NCc2nnc(SCC(=O)NCc3ccco3)n2-c2ccccc2OC)cc1 | 6.22
38 | COc1ccc2nc(SCC(N)=O)cc(C)c2c1 | 9.46
39 | C#CCOn1c(-n2nc(C)cc2C)nc2ccccc2c1=O | 12.8
40 | O=CN1CCN(C(=O)c2ccccc2Cl)CC1 | 19
41 | CCN(CC)S(=O)(=O)c1ccc(Cl)c(C(=O)Nc2ccc(Cl)cc2[N+](=O)[O-])c1 | 2.04
42 | O=C(O)c1ccc(COc2ccc([N+](=O)[O-])cc2)o1 | 16.6
43 | C=CCn1c(SCC(C)=O)nc2sc3c(c2c1=O)CCC3 | 7.25
44 | O=C(NCc1ccco1)c1ccc(Br)c(S(=O)(=O)N2CCCCC2)c1 | -4.85

Row | Structure (SMILES) | hERG current change (%, negative = inhibition) at 1uM [%]
45 | Cc1cc(Cl)ccc1OCCCC(=O)NCCCn1ccnc1 | -17.4
46 | O=C(O)C1CCCCC1C(=O)Nc1cccc(C(=O)N2CCCCC2)c1 (stereo not shown) | 5.17
47 | CCOc1ccc(CCNC(=O)c2ccc3ccccc3n2)cc1OCC | 10.5
48 | CCOc1ccc(Br)cc1S(=O)(=O)NC1CCCC1 | 4.8
49 | CCn1cc(CNC(=O)c2cc(-c3ccccc3OC)nc3ccccc23)c(C)n1 | 3.55
50 | Cc1ccc(S(=O)(=O)NC(CC(C)C)C(=O)N2CCCCCCC2)cc1 (stereo not shown) | 10.9
51 | CN(C)Cc1c(C(=O)N/N=C/C2CC=CCC2)nnn1-c1nonc1N (stereo not shown) | 4.67
52 | CSc1nc(N2CCN(c3ccccc3)CC2)cc(N2CCN(c3ccccc3)CC2)n1 | 17.3
53 | Cc1ccnc(SCC(=O)N2CCCc3ccccc32)n1 | -1.64
54 | CCCn1c(CN2CCN(C(=O)OCC)CC2)nc2cc([N+](=O)[O-])ccc21 | -13
55 | O=C(CC1c2ccccc2Oc2ccccc21)Nc1ccccc1C(F)(F)F | 8.71
56 | Cc1ccc(C(C)NC(=O)C23CC4CC(CC(C4)C2)C3)cc1 (stereo not shown) | 10
57 | CC(=O)c1cc(-c2ccccc2)n(CC(=O)Nc2cccc(C)c2C)c1C | 6.81
58 | Cc1ccc(-n2nnnc2SCc2nnc(-c3ccccc3Br)o2)c(C)c1 | 6.8
59 | O=C(/C=C/c1ccc(Cl)cc1)Nc1ccc(N2CCCCC2)cc1 | 5.92
60 | Cc1cc(C)cc(CC2CC(=O)N(c3ccc(Cl)cn3)C2=O)c1 (stereo not shown) | -6.65
61 | CCOC(CCNC(=O)c1cn(CCOC)c(=O)c2c1c1ccccc1n2C)OCC | 9.45
62 | CSc1ccccc1NC(=O)CN(C)C(C)C(=O)NC(=O)NC1CCCCC1 (stereo not shown) | 10.2
63 | CC1(C)C(=O)NCCN1C(=O)CC1C(=O)NCCN1Cc1cccc(C(F)(F)F)c1 (stereo not shown) | 11.9
64 | Nc1nc2ccc([N+](=O)[O-])cc2[nH]1 | 16.5
65 | Cc1nc2c(-c3ccc(Cl)cc3)c(C)[nH]n2c(=O)c1Cc1ccccc1 | 12.2
66 | CCN(CC(=O)NCc1ccco1)S(=O)(=O)c1ccc(OC)cc1 | 6.85

Row | Structure (SMILES) | hERG current change (%, negative = inhibition) at 1uM [%]
67 | CN1CCN(C(=O)/C(=C/c2ccc([N+](=O)[O-])cc2)NC(=O)c2ccccc2)CC1 | -90.4
68 | O=C(CN1C(=O)NC2(CCCC2)C1=O)N1CCN(S(=O)(=O)c2ccccc2[N+](=O)[O-])CC1 | 8.29
69 | CCOC(=O)N1CCN(S(=O)(=O)c2ccc(C)cc2)C1c1ccc(OC)cc1 (stereo not shown) | 11.1
70 | CN(c1ccccc1)S(=O)(=O)c1ccc(C(=O)NCCc2ccc(F)cc2)cc1 | 12.6
71 | O=C(CN1CCOCC1)NN=C1CCCCCCCCCCC1 | 6.55
72 | Cc1cc(C)n(-c2ccc(C(=O)OCC(=O)Nc3ccc([N+](=O)[O-])cc3)cc2)n1 | -4.29
73 | Cn1c(=O)cc(OCC(=O)NCCc2ccc(Cl)cc2)c2ccccc21 | -0.158
74 | Cc1ccc(C(=O)N(C)CCOc2ccccc2)cc1S(=O)(=O)N1CCOCC1 | 5.62
75 | O=C(c1ccccc1)c1cc([N+](=O)[O-])ccc1N1CCOCC1 | 10.9
76 | S=C(NCCc1ccccc1)N1CCCCC1 | 8.21
77 | Cc1cccc(NC(=O)CCn2cnnn2)c1 | 14.9
78 | CCc1c(C)sc(NC(=O)c2ccccc2[N+](=O)[O-])c1C(N)=O | 6.41
79 | O=C(Nc1ccc2c(c1)OCO2)c1cc(-c2cccc(O)c2)on1 | -35.9
80 | O=C(NCc1ccc2c(c1)OCO2)Nc1ccc([N+](=O)[O-])cc1 | 17.9
81 | O=C(NCC(c1ccc(F)cc1)N1CCOCC1)c1nn(-c2ccccc2)c(=O)c2ccccc12 (stereo not shown) | -5.24
82 | CC(=O)OCCn1c(=O)c2cc3c(=O)n(CCOC(C)=O)c(=O)c3cc2c1=O | 2.8
83 | COc1cc(CN2CCC(C(N)=O)CC2)ccc1OCc1ccccc1.O=C(O)C(=O)O | 0.71
84 | Cc1cc(C)nc(SCC(=O)OCC(=O)Nc2nc3ccccc3s2)n1 | 20.3
85 | CCOC(=O)N1CCN(C(=O)C(C)(C)Oc2ccc(Cl)cc2)CC1 | 6.1
86 | Cc1c(C(=O)OCc2ccc(F)cc2)sc2nc3n(c(=O)c12)CCC3 | 11
87 | CCc1ccc(CN(C)Cc2nc(Cc3ccc(OC)c(OC)c3)no2)nc1 | 6.34
88 | COc1ccc(Nc2ncc(C(=O)O)c3ccccc23)cc1 | 18.9
